Laboratory results: publication PMC6919601, “Identification of Plasmodium dipeptidyl aminopeptidase allosteric inhibitors by high throughput screening” (PLoS ONE, 2019)
Several values for one entry are separate records, joined by “and”; a condition that tells them apart may be missing. Equal values may be shown once. The whole screen tested about 110,000 compounds, of which about 230 (0.21%) showed an effect of 50% or more. Some of the results follow. Where a SMILES comes first, the peptide text is derived from it. The star is where a group is joined. Cbz = O=C(OCc1ccccc1)*

target: DPAP1 (Plasmodium falciparum, UniProt Q8IIJ9); assay: primary screen, percent inhibition; read by cleavage of a fluorogenic dipeptide substrate; higher = more effect of the substance; parameters: species or system P. falciparum D10 trophozoite lysates; single well
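Note: 30 min substrate incubation versus DMSO and 10 µM JCP410 controls.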

DPAP1, sequence (Q8IIJ9 whole entry, looked up): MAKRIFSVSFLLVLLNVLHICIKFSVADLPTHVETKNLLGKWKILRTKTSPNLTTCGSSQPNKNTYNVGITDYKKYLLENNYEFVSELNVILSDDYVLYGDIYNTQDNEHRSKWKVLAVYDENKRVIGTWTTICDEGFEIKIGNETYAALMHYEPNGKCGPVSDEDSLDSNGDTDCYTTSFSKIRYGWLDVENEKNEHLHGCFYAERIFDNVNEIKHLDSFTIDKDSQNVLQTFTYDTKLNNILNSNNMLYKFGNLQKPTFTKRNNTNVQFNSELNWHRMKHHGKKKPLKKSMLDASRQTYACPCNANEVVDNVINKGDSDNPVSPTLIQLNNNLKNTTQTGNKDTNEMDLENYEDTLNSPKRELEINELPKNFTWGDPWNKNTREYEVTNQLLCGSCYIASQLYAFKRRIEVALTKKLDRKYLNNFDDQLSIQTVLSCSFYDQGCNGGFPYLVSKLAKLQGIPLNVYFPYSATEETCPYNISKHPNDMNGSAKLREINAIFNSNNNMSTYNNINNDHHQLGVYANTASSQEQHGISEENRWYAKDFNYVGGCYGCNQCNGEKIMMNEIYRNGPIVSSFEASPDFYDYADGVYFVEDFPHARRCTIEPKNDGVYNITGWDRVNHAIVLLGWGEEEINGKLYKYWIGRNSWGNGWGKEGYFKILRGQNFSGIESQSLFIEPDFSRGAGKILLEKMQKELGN

Row | Structure (SMILES) | % Inhibition @ 10 uM
1 | CC(C)C[C@H](NC(=O)c1ccc(-c2ccc(F)c(F)c2)cc1)C(=O)NCC#N | -6.46%
2 | O=C(C1CCCO1)N1CCN(c2cccc(Cl)c2)CC1 (stereo not drawn) | 2.16%
3 | COc1nc(F)c(F)c(Oc2ccc(C)cc2)c1F | -5.28%
4 | N#CC1=C(N)Oc2cc(N)ccc2C1c1cc(Br)ccc1F (stereo not drawn) | 5.89%
5 | CCOC(=O)N1CCN(CC(O)COc2ccccc2C(C)(C)C)CC1 (stereo not drawn) | -5.35%
6 | CCOc1ccc(CNc2ccccc2C)cc1OC | -0.62%
7 | COc1ccc(F)cc1S(=O)(=O)N1CCc2ccccc2C1 | -5%
8 | CCOc1ccc2nc(NS(=O)(=O)c3ccc(NC(C)=O)cc3)sc2c1 | 0.583%
9 | COc1ccc(Cc2nc(-c3ccc(C(F)(F)F)cc3)no2)cc1 | -2.4%
10 | Cc1ccc(-c2ccc(C3Nc4ccc5ccccc5c4C4=C3C(=O)CC(C)(C)C4)o2)cc1Cl (stereo not drawn) | -0.833%
11 | CCCNC(=O)Cn1nc(CC)n2c(cc3sc(CC)cc32)c1=O | -1.7%
12 | O=C(CNS(=O)(=O)c1cccs1)N1CCC2(CC1)OCCO2 | 7.57%
13 | O=[N+]([O-])c1ccc(C23CC4CC(CC(C4)C2)C3)cc1 | -1.02%
14 | COc1cc(/C=C/C(=O)Nc2nnc(C3CCCCC3)s2)cc(OC)c1OC | 5.12%
15 | CCCCc1nc(O)c(C#N)c2c1CSC(C)(C)C2 | -5.63%
16 | CCCN1CCC(N(CC)Cc2ccccc2)CC1 | 3.44%
17 | O=C(COc1ccc(Cl)cc1Br)N1CCN(c2ccccc2)CC1 | -1.38% and -3.26%
18 | N#CC1=C(N)N(c2c(F)cccc2F)C2=C(C(=O)CCC2)C1c1ccc2c(c1)OCO2 (stereo not drawn) | -6.59%
19 | CC1CCN(C(=O)Cn2ncn3nc(-c4cccs4)cc3c2=O)CC1 | -4.68%
20 | Cc1ccc(S(=O)(=O)N(CC(=O)Nc2ccc3c(c2)OCO3)c2ccc(F)cc2)cc1 | 0.528%
21 | COc1ccc(N2C(=O)CC(NCc3cccc(C(F)(F)F)c3)C2=O)cc1 (stereo not drawn) | 4.03%

Row | Structure (SMILES) | % Inhibition @ 10 uM
22 | CCOc1nc2c(c(=O)n(Cc3ccc(Cl)cc3)c(=O)n2C)n1C | -2.6%
23 | CC(=O)Nc1cccc(/N=C/c2c(C)nn(-c3ccc(F)cc3)c2O)c1 | 1.37%
24 | COc1ccc(C2=CC(c3ccccc3F)n3c(nc4ccccc43)N2)cc1 (stereo not drawn) | 4.86%
25 | Cc1nc(O)c(C#N)c(C)c1CSCC(=O)Nc1ccccc1 | 3.92%
26 | COc1ccc(CN2CCN(S(=O)(=O)c3ccc(Cl)cc3)CC2)c(OC)c1OC | -1.52%
27 | COc1ccc(C2C(C#N)=C(N)N(c3ccc(F)cc3)C3=C2C(=O)CCC3)cc1CN1CCOCC1 (stereo not drawn) | -4.49%
28 | O=S(=O)(c1ccccc1)n1nc(-c2ccccc2)nc1NCc1ccccc1 | -2.91%
29 | Cc1sc(NC(=O)CSc2ccccc2)c(C(N)=O)c1-c1ccccc1 | 18.7%
30 | CCCNC(=O)CNS(=O)(=O)c1c(C)cc(C)cc1C | -0.62%
31 | COc1ccccc1OCC(=O)N(Cc1ccco1)Cc1ccco1 | 3.88%
32 | COc1ccc(CCNC(=O)c2c(C)nn(-c3ccc(F)cc3)c2-n2cccc2)c(OC)c1 | -2.48%
33 | CNC(=S)N(CCc1c(C)[nH]c2ccc(C)cc12)Cc1ccncc1 | -2.74%
34 | CCN(C(=O)COc1ccccc1)c1ccc(C(O)(C(=O)OC)C(F)(F)F)cc1 (stereo not drawn) | 9.68%
35 | Nc1ccccc1C(=O)NC1CCCCC1 | 4.05%
36 | CCOc1ccc2nc(N3CCC(C(=O)NCc4ccc5c(c4)OCO5)CC3)sc2c1 | -3.35%
37 | CCOc1cc(C2c3c(-c4cc(C)ccc4O)n[nH]c3C(=O)N2Cc2cccnc2)ccc1O (stereo not drawn) | -1.15%
38 | Clc1ccccc1N1CCN(Cc2ccsc2)CC1 | -0.192%
39 | CCCc1nn(C)c(C(N)=O)c1NC(=O)c1ccccc1OCC | 1.05%
40 | COc1cccc(CN2CCN(Cc3ccccc3Br)CC2)c1 | -5.46%
41 | COc1ccccc1-c1c(Cl)nc(Cl)c(=O)n1-c1ccccc1 | 1.43%
42 | COc1cc(OC)c2c(C)cc(N3CCN(C)CC3)nc2c1 | -1.15%

Row | Structure (SMILES) | % Inhibition @ 10 uM
43 | COc1cccc(-c2cn3nc(CC(C)C)sc3n2)c1 | -8.39%
44 | Cn1c(=O)[nH]c(=O)c2c1nc(N1CCCCCC1)n2Cc1ccc(Cl)cc1 | -1.79%
45 | Cc1cc(O)c2c(C)c(CC(=O)NCCc3ccccc3F)c(=O)oc2c1 | 0.895%
46 | CCOc1cccc(C(=O)Nc2ccc(Br)cn2)c1 | -7.34%
47 | CC1=NN(c2ccc(C)cc2)C(=O)CC1 | -7.15%
48 | O=C1CSc2nnc(-c3ccncc3)n2N1 | 6.01%
49 | CCOC(=O)C1=C(C)N=C(SCC(=O)O)NC1c1ccccc1 (stereo not drawn) | 1.13%
50 | O=C(NC(Cc1ccccc1)C(=O)N1CCCC1C(=O)O)OCc1ccccc1 (stereo not drawn) (Cbz-Phe-Pro-OH; configuration not given here) | -1.47%
51 | COc1ccccc1-c1c(C)nn2c(C)c(C(C)=O)cnc12 | 1.12%
52 | COc1ccc(C(=O)NCC2OCCc3ccccc32)cc1OC (stereo not drawn) | 2.25%
53 | CC(NC(=O)C1CCC(C)(C(=O)O)C1(C)C)c1ccccc1 (stereo not drawn) | 1.7%
54 | CCOc1ccc(C(=O)Nc2ccc(S(=O)(=O)N3CCCC3)cc2)cc1 | 5.14%
55 | COc1ccccc1/C=C/C1=NN(c2ccc(F)cc2)C(c2ccccc2OC)C1 (stereo not drawn) | -1.72%
56 | Cc1ccc2nc(-c3ccc(NC(=O)c4ccc(Cl)cc4Cl)cc3)sc2c1 | 0.467%
57 | COc1cc(-c2nnc3sc(-c4ccc(C)c(C)c4)nn23)cc(OC)c1OC | 29.8%
58 | COc1ccc2[nH]c(C)c(CCNC(=O)c3cc(OC)c(OC)c(OC)c3)c2c1 | 2.18%
59 | CCOC(=O)c1c(NC(=O)c2cc(-c3ccc(F)cc3)on2)sc(C(C)=O)c1C | 6.87%
60 | Cc1cc(C)c(S(=O)(=O)N2CCc3ccccc3C2)c(C)c1 | -0.856%
61 | CSc1nc(-c2ccccc2)nc(NC(=O)c2ccccc2)c1C(C)=O | -5.51%
62 | COC(=O)c1ccccc1NC(=O)CCCC(=O)O | 2.4%
63 | Cc1ccc(Cl)cc1N1CCN(C(=O)COc2ccc(S(=O)(=O)NC(C)(C)C)cc2)CC1 | 1.39%
